Data on 65 molecules can be found in paper PMC6919601, “Identification of Plasmodium dipeptidyl aminopeptidase allosteric inhibitors by high throughput screening” (PLoS ONE, 2019).

Among all 110,000 compounds or so, about 230 (0.21%) showed an effect of 50% or more. This is one part of the list.
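Also: 30 min substrate incubation versus DMSO and 10 µM JCP410 controls.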

This test deals with DPAP1 (Plasmodium falciparum, UniProt Q8IIJ9). Put plainly: primary screen, percent inhibition; read by cleavage of a fluorogenic dipeptide substrate; higher = more effect of the substance. Also on record: species or system P. falciparum D10 trophozoite lysates; single well.
Sequence of DPAP1 (Q8IIJ9 whole entry, looked up): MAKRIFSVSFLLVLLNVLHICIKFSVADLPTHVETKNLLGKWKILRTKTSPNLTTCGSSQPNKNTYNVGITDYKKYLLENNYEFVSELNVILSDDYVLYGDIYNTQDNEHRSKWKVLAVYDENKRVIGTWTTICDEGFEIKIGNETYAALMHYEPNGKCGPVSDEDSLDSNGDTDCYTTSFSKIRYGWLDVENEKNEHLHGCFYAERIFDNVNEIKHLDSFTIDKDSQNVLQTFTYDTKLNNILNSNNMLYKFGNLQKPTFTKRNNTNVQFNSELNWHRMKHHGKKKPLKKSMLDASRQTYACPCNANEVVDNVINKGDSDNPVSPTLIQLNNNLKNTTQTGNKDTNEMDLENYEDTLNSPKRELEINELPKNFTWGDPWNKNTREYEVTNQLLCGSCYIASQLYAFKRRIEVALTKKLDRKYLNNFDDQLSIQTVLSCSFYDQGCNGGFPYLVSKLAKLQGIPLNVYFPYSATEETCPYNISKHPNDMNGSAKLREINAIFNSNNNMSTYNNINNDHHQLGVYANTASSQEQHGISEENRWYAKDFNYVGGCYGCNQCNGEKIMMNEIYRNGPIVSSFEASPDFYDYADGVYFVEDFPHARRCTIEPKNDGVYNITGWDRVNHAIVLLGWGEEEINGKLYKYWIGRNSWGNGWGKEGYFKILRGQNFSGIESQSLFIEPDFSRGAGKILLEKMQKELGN
With `Cc1cc(C=C2C(=O)N(C)C(=O)N(C)C2=O)c(C)n1-c1ccc(Br)cc1`, the “% Inhibition @ 10 uM” value came out at 20.5%. Turning to `CCOc1cccc2c1OC1(CCC(C)CC1)N1N=C(c3ccco3)CC21` (centres unmarked), the “% Inhibition @ 10 uM” value is given as 29.7%. Take `Cc1ccc(/C(=C2\OC(=O)c3ccccc32)[N+](=O)[O-])c(C)c1`: the “% Inhibition @ 10 uM” value is reported as -6.18%. Consider `COc1ccccc1N1CCN(CCCN2C(=O)C3CCCCN3C2=O)CC1` (centres unmarked), for which the “% Inhibition @ 10 uM” value is given as -3.65%. Next, `CCOc1cc2c(cc1OCC)C(c1c(C)nn(C)c1Cl)NCC2` (centres unmarked): 2.18%. With `C=CCOc1ccc(C2c3c(oc4ccc(F)cc4c3=O)C(=O)N2c2ccc(C)cn2)cc1OC` (centres unmarked), the “% Inhibition @ 10 uM” value came to 3.73%. On to `Cc1ccccc1C(=O)Nc1sc2c(c1C(=O)N1CCN(C)CC1)CCCC2`, for which the “% Inhibition @ 10 uM” value was -2.44%.

As to `CCCCn1c(C(Cc2ccccc2)NC(=O)COC)nc2ccccc21` (centres unmarked), the “% Inhibition @ 10 uM” value was -0.58%. Next, `CC(C)CNS(=O)(=O)c1ccc(S(=O)(=O)N2CCN(CCC#N)CC2)cc1`: -1.82%; `O=C(c1ccc(N2C(=O)c3ccccc3C2=O)cc1)N1CCCCCC1`: -1.61%. Consider `O=C(NCCN1CCOCC1)/C(=C/c1cccnc1)NC(=O)c1ccccc1`, for which the “% Inhibition @ 10 uM” value is listed as 3.79%. As for `CC(=O)Nc1nonc1-c1ccccc1`, the “% Inhibition @ 10 uM” value is given as -3.03%. `O=C(c1cc2nc(-c3ccco3)cc(C(F)(F)F)n2n1)N1CCCC1`: the “% Inhibition @ 10 uM” value is -5.28%. On to `Cn1c(=O)c2c(nc(SCC(=O)Nc3ccc(F)cc3)n2C)n(C)c1=O`, for which the “% Inhibition @ 10 uM” value is listed as -4.03%. On to `COc1ccc(CCC(=O)Nc2ccc(C(C)C)cc2)cc1`, for which the “% Inhibition @ 10 uM” value is -8.59%. Regarding `COc1ccc(Cl)cc1C(=O)NC1CCCCC1`, the “% Inhibition @ 10 uM” value was -1.61%.

On to `CCOc1ccc(-n2c(C)nc3cc(C(=O)NC4CC4)ccc32)cc1`, for which the “% Inhibition @ 10 uM” value is reported as -5.64%.

Take `Cc1nc2cccnc2n1-c1ccc(C(=O)N2CCN(C)CC2)cc1`: the “% Inhibition @ 10 uM” value was 1.98%. Turning to `CC(=O)NS(=O)(=O)c1cccnc1Nc1ccc(Cl)cc1`, the “% Inhibition @ 10 uM” value is given as 2.13%. Regarding `O=C(CN1C(=O)c2ccccc2C1=O)N1CCCCCC1`, the “% Inhibition @ 10 uM” value amounted to 2.08%.

`Cc1ccc(CNC(=O)CSc2nc3ccccc3n3cnnc23)cc1`: the “% Inhibition @ 10 uM” value is 0.974%. For `S=c1n(-c2ccccc2)cnn1CN1CCOCC1` the value was -1.25%. On to `CC1CCCC(N2CCN(c3ccccc3)CC2)C1` (centres unmarked), for which the “% Inhibition @ 10 uM” value is listed as 3.19%. Consider `Cc1cc(C)c2c(=O)n(CC(=O)NC(C)CCc3ccccc3)sc2n1` (centres unmarked), for which the “% Inhibition @ 10 uM” value was found to be 12%. For `COCCNC(=O)/C(C#N)=C/c1c(Oc2ccc(Cl)c(C)c2)nc2ccccn2c1=O`, the “% Inhibition @ 10 uM” value is -0.828%. For `Cl/C(=C\c1ccccc1)CN1CCN(Cc2ccccc2)CC1`, the “% Inhibition @ 10 uM” value turned out to be 1.26%. Consider `CC1C(c2ccccc2)N(C)C(c2ccccc2)C(C)C1(C)O` (centres unmarked), for which the “% Inhibition @ 10 uM” value was 2.7%. Next, `COc1ccccc1NC(=O)C1=C(C)N=C2CC(C)(C)CC(O)=C2C1c1ccc(Br)cc1` (centres unmarked): 4.67%; `COc1cccc(/C=C2\N=C(c3ccc(-c4ccccc4)cc3)OC2=O)c1`: -7.16%. As to `Cc1c(C(=O)NCCO)c(-c2ccccc2)nn1-c1ccccc1`, the “% Inhibition @ 10 uM” value is -1.86%. Turning to `Fc1ccc(F)c(CN2CCN(c3ccc(Cl)cc3)CC2)c1`, the “% Inhibition @ 10 uM” value is given as -0.0648%. For `CC1CCN(C(=O)COc2ccc([N+](=O)[O-])cc2)CC1`, the “% Inhibition @ 10 uM” value is listed as -8.12%. For `CCCN(Cc1cc(Br)cc(Br)c1O)CC1CC1` the value was 0.273%; for `O=C(CCc1nnc2ccc(N3CCOCC3)nn12)N1CCC(Cc2ccccc2)CC1`, -0.264%.

Regarding `COc1ccc(C2c3sc(O)nc3SC3C(=O)N(c4ccc(C)cc4)C(=O)C32)cc1` (centres unmarked), the “% Inhibition @ 10 uM” value is reported as -2.67%. Next, `CCN(CC)C(=O)c1sc(NC(=O)C2c3ccccc3Oc3ccccc32)c(C(N)=O)c1C`: 4.32%; `O=c1[nH]c(/C=C\c2c[nH]c3ccccc23)c([N+](=O)[O-])c(=O)[nH]1`: 1.13%. For `CC(C)c1n[nH]c(N)n1` the value was -2.23%. On to `C=CCNC(=O)CN(c1ccc(Oc2ccccc2)cc1)S(C)(=O)=O`, for which the “% Inhibition @ 10 uM” value is on record as 3.72%. As for `O=C(OCC(c1ccccc1)c1ccccc1)C1=COCCO1`, the “% Inhibition @ 10 uM” value was 4.71%. Take `Cc1ccccc1Cn1nc(C)c(NC(=O)c2nc3n(n2)C(C(F)F)CC(C)N3)c1C` (centres unmarked): the “% Inhibition @ 10 uM” value was 0.0289%. For `CC(NC(=O)C(=O)NCCc1c[nH]c2ccccc12)C(c1cccs1)N1CCOCC1` (centres unmarked), the “% Inhibition @ 10 uM” value is reported as -1.08%. For the molecule `COc1ccc(-n2cc(-c3ccccc3)c3c(NCc4ccco4)ncnc32)cc1`, the “% Inhibition @ 10 uM” value amounted to 5.69%. With `COc1ccc(C(=O)Nc2ccccc2C2(C)CC2)cc1`, the “% Inhibition @ 10 uM” value is -2.12%. With `Cc1cccc(C(=O)Nc2cc([N+](=O)[O-])ccc2C)c1`, the “% Inhibition @ 10 uM” value is -5.11%. As for `COc1ccc(C(=N)NOC(=O)/C=C/c2ccccc2Cl)cc1OC`, the “% Inhibition @ 10 uM” value is reported as 9.35%.

On to `CCOc1ccc(C(=O)Nc2nc(C)cs2)cc1`, for which the “% Inhibition @ 10 uM” value is -0.95%. Next, `COc1ccc(OC)c(CCNC(=O)CCc2nnc3n(CC(C)C)c(=O)c4ccccc4n23)c1`: 4.16%. Regarding `C=CCSc1nc(=O)c2c(n1C)NC(=O)CC2c1cc(F)cc(F)c1` (centres unmarked), the “% Inhibition @ 10 uM” value is reported as -4.71%. On to `O=C1c2ccccc2-c2nn(C(=O)c3cccnc3Cl)c3cccc1c23`, for which the “% Inhibition @ 10 uM” value is on record as 1.62%. In the case of `CCc1ccccc1NC(=O)c1cnccn1`, the “% Inhibition @ 10 uM” value is recorded as -5.11%. For `Cn1nnnc1SCc1csc(C2C(C#N)=C(N)OC3=C2C(=O)CCC3)c1` (centres unmarked) the value was 6.38%; for `COc1ccc(-c2cn3nc(N4CCC(C(=O)N(C)Cc5ccccc5)CC4)sc3n2)cc1`, 0.174%; for `COC(=O)c1c(C)[nH]c(C)c1-c1ccccc1Cl`, -5.6%. Regarding `Cc1cc(C)cc(N(CC(=O)NC2CC3CCC2C3)S(=O)(=O)c2ccccc2)c1` (centres unmarked), the “% Inhibition @ 10 uM” value turned out to be 4.44%. `O=C(C1CCN(S(=O)(=O)N2CCOCC2)CC1)N1CCCC1`: the “% Inhibition @ 10 uM” value is given as 3.66%. Consider `Cc1cc(NS(=O)(=O)c2ccccc2)no1`, for which the “% Inhibition @ 10 uM” value worked out at 3.01%. Next, `Cc1cccc(-n2ncc3c(NCC4CCCO4)ncnc32)c1` (centres unmarked): -2.45%; `Brc1ccccc1OCCCCCCn1ccnc1`: 0.815%. For `CCCSc1nc2c(C)cccc2cc1C#N`, the “% Inhibition @ 10 uM” value is recorded as -8.35%. Take `COc1ccc(CCNC2CC(=O)N(c3ccc(F)cc3)C2=O)cc1OC` (centres unmarked): the “% Inhibition @ 10 uM” value is reported as -1.57%. On to `Cc1cc(Cl)ccc1OCC(=O)Nc1ccccc1C(=O)Nc1ccccc1`, for which the “% Inhibition @ 10 uM” value is -1.35%. In the case of `CCNC1=NS(=O)(=O)C(c2ccc(C)cc2)=C1C`, the “% Inhibition @ 10 uM” value is listed as -1.08%. For `CSCCCN(C)CCN(C)C`, the “% Inhibition @ 10 uM” value is reported as -3.42%. With `CCOc1ccc(S(=O)(=O)N2CCC(C(N)=O)CC2)cc1`, the “% Inhibition @ 10 uM” value is -0.132%.
